{"source": "PubChem BioAssay AID1460", "about": "(National Center for Advancing Translational Sciences (NCATS), 2008)", "note": "Out of some 270,000 compounds screened, about 5,800 (2.1%) were called active. Inconclusive results, whose numbers are uncertain, are shown with a selection of clear calls. Calls come from the whole dose curve; as a rule, active = well fitted inhibition curve with a large enough effect; inconclusive = small, poorly fitted or top-dose-only effect; inactive = flat fitted curve, though single readings scatter. Where the call is inconclusive, the potency comes from a doubtful curve fit. Potency is the fitted concentration of half-maximal effect; tags give direction and shape of the fitted curve."}
{"biological_target": "Microtubule-associated protein tau (Homo sapiens) (UniProt P10636)", "sequence (P10636 whole entry, looked up)": "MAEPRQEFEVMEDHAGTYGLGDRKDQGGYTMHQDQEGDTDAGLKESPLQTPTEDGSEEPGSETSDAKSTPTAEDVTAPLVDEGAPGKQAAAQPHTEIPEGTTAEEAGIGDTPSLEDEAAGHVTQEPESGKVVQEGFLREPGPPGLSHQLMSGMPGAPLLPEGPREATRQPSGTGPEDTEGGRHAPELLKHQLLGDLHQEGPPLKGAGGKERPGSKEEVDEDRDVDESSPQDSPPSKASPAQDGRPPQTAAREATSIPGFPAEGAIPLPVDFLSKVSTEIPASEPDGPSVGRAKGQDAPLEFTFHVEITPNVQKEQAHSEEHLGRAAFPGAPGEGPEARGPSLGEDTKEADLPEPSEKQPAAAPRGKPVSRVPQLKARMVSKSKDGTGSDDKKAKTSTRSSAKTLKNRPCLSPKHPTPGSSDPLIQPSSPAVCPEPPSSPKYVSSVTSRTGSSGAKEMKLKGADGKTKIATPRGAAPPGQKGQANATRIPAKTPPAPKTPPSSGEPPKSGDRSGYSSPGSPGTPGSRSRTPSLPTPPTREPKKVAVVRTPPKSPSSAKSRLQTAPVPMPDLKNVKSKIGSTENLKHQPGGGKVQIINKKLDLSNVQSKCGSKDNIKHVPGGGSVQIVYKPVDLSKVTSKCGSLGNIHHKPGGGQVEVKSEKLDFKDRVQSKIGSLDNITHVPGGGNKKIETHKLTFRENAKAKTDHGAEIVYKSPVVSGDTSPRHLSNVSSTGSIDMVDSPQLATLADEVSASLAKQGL", "assay": "qHTS for Inhibitors of Tau Fibril Formation, Thioflavin T Binding; note: nearly all actives have a fitted effect of over 55% in size", "conditions": "recombinant tau K18 P301L, heparin-induced fibrillization, ThT fluorescence; series mostly up to 57.4 µM", "outline": "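Using a mix of unlabeled (15 uM) and Alexa 594-labeled (0.24 uM) tau K18 P301L, heparin-triggered fibrillization over 6 hr at 37 C was scored by ThT fluorescence.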"}
{"smiles": "COc1cc2c(cc1OC)[C@H](C)N(CC1C(=O)O[C@@H]3C[C@@]4(C)CCC[C@H](C)[C@@]45OC5[C@H]13)CC2", "note": "(some centres undefined)", "Potency": "inconclusive: 35.5 µM [inhibitor, partial curve, poor fit]"}
{"smiles": "CCOc1ccc(Nc2c(S(=O)(=O)c3ccc(Cl)cc3)cnc3ccc(OC)cc23)cc1", "Potency": "inactive"}
{"smiles": "Cc1ccc(-n2nnc(-c3nsc(NC(=O)c4ccccc4C)n3)c2C)cc1Cl", "Potency": "inconclusive: 2.82 µM [inhibitor, full curve]"}
{"smiles": "O=C(Nc1ccc(F)cc1)N1CCN(c2ccc3nnc(-c4ccc(F)cc4)n3n2)CC1", "Potency": "inconclusive: 28.2 µM [inhibitor, single point]"}
{"smiles": "C[C@@H]1C=C(C(=O)N2CCN(C)CC2)O[C@H](OCc2ccc(CO)cc2)C1", "Potency": "inactive"}
{"smiles": "COc1ccc(-c2csc(NC(=O)c3ccccc3NS(=O)(=O)c3ccc(F)c(F)c3)n2)cc1", "Potency": "active: 22.4 µM"}
{"smiles": "O=C(NCCn1cc(SCc2cccc(F)c2)c2ccccc21)c1cccc(C(F)(F)F)c1", "Potency": "inconclusive: 7.08 µM [inhibitor, partial curve]"}
{"smiles": "O=C(NNc1nc2cc3c(cc2s1)OCO3)c1cccc(F)c1", "Potency": "inconclusive: 17.8 µM [inhibitor, partial curve]"}
{"smiles": "CCOC(=O)c1cc(-c2ccccc2)n(CCC(=O)Nc2ccc(C(F)(F)F)cc2)c1C", "Potency": "inactive"}
{"smiles": "Cc1ccc2cc3cc(C(=O)N4CCN(c5cccc(C(F)(F)F)c5)CC4)sc3nc2c1", "Potency": "inactive"}
{"smiles": "[O-]/[N+](=C\\c1ccc(F)cc1)c1ccccc1", "Potency": "inconclusive: 39.8 µM [inhibitor, single point]"}
{"smiles": "COc1cc2cc(CN(Cc3nnnn3C3CCCC3)C3CCCC3)c(=O)[nH]c2cc1OC", "Potency": "inactive"}
{"smiles": "COc1cccc(-c2csc(N3CCN(C(=S)Nc4cccc(C)c4)CC3)n2)c1", "Potency": "inconclusive: 8.91 µM [inhibitor, full curve, poor fit]"}
{"smiles": "Cc1cccc(NC(=O)c2cc3c(=O)n(Cc4ccco4)ccc3nc2C)c1", "Potency": "inactive"}
{"smiles": "Cc1nn(-c2ccccc2)c2c1N(CC(=O)NCc1ccc(N(C)C)cc1)C(=O)CS2", "Potency": "inconclusive: 39.8 µM [inhibitor, single point]"}
{"smiles": "O=C(Cn1nc(C(=O)O)c2ccccc2c1=O)Nc1ccc2c(c1)OCO2", "Potency": "inconclusive: 11.2 µM [inhibitor, partial curve, poor fit]"}
{"smiles": "CCOc1ccc(-c2[nH]ncc2-c2csc(C)n2)c(O)c1", "Potency": "inactive"}
{"smiles": "CCCCCCCCCCC1=C(C)C(=O)C(OC)=C(OC)C1=O", "Potency": "inconclusive: 35.5 µM [inhibitor, single point]"}
{"smiles": "COc1ccc(NC(=O)c2ccccc2O)c(OC)c1", "Potency": "inconclusive: 28.2 µM [inhibitor, partial curve]"}
